B1: GPR68, Q15743 (parent)
chain: MGNITADNSSMSCTIDHTIHQTLAPVVYVTVLVVGFPANCLSLYFGYLQIKARNELGVYLCNLTVADLFYICSLPFWLQYVLQHDNWSHGDLSCQVCGILLYENIYISVGFLCCISVDRYLAVAHPFRFHQFRTLKAAVGVSVVIWAKELLTSIYFLMHEEVIEDENQHRVCFEHYPIQAWQRAINYYRFLVGFLFPICLLLASYQGILRAVRRSHGTQKSRKDQIQRLVLSTVVIFLACFLPYHVLLLVRSVWEASCDFAKGVFNAYHFSLLLTSFNCVADPVLYCFVSETTHRDLARLRGACLAFLTCSRTGRAREAYPLGAPEASGKSGAQGEEPELLTKLHPAFQTPNSPGSGGFPTGRLA

The least precise scores are not listed. Not listed are two conditions whose scores span a narrow range. In variant names, del marks residues removed and ins residues inserted between the two positions. For some of these results: How much ogerin was present is not stated here.

The variants in series [1] derive from B1. Nature of the series: cAMP reporter score (Enrich2 score, wild type = 0); higher = more signal; HEK293T, FACS bins.
The variants in series [2] derive from B1. The series can be described thus: surface expression score (Enrich2 score, wild type = 0); higher = more signal; HEK293T, FACS bins.

MGNITADNSSMSCTIDHTIHQTLAPVVYVTVLVVGFPANCLSLYFGYLQIKARNELGVYLCNLTVADLFYICSLPFWLQYVLQHENWSHGDLSCQVCGILLYENIYISVGFLCCISVDRYLAVAHPFRFHQFRTLKAAVGVSVVIWAKELLTSIYFLMHEEVIEDENQHRVCFEHYPIQAWQRAINYYRFLVGFLFPICLLLASYQGILRAVRRSHGTQKSRKDQIQRLVLSTVVIFLACFLPYHVLLLVRSVWEASCDFAKGVFNAYHFSLLLTSFNCVADPVLYCFVSETTHRDLARLRGACLAFLTCSRTGRAREAYPLGAPEASGKSGAQGEEPELLTKLHPAFQTPNSPGSGGFPTGRLA [D85E]: the cAMP reporter score in series [1] (pH 5.5) was -0.289; in series [1] (pH 6) it was -0.149; in series [1] (pH 6, modulator: ogerin), -0.558; in series [1] (pH 6.5, modulator: ogerin), -0.625. In addition, in series [2], the surface expression score was determined as 1.38.

Take MGNITADNSSMSCTIDHTIHQTLAPVVYVTVLVVGFPANCLSLYFGYLQIKARNELGVYLCNLTVADLFYICSLPFWLQYVLQHFNWSHGDLSCQVCGILLYENIYISVGFLCCISVDRYLAVAHPFRFHQFRTLKAAVGVSVVIWAKELLTSIYFLMHEEVIEDENQHRVCFEHYPIQAWQRAINYYRFLVGFLFPICLLLASYQGILRAVRRSHGTQKSRKDQIQRLVLSTVVIFLACFLPYHVLLLVRSVWEASCDFAKGVFNAYHFSLLLTSFNCVADPVLYCFVSETTHRDLARLRGACLAFLTCSRTGRAREAYPLGAPEASGKSGAQGEEPELLTKLHPAFQTPNSPGSGGFPTGRLA [D85F]: the cAMP reporter score in series [1] (pH 5.5) is 0.028; in series [1] (pH 6) it was -0.323; in series [1] (pH 6, modulator: ogerin), 0.178; in series [1] (pH 6.5, modulator: ogerin), -0.577. In addition, in series [2], the surface expression score is -1.22.

For the origin of these results see the GPR68 mutational scans of Howard et al. (2025).
